# In article PMC10668032:
# The list shows a part of the results. At the low end of the ranking the order means little.
# Biological target: SIX1 homeodomain (reference allele) (UniProt Q15475)
# Assay: universal protein binding microarray
# Conditions: Universal all-10-mer PBM (8x60K, AMADID 030236), 300 nM GST-tagged protein, Alexa Fluor 488 anti-GST; buffer, salt, pH and temperature not stated; high values mean tight binding; most listed sequences are background and not binding sites; double strand, one strand shown
row,Sequence,binding signal [E-score]
1,CTAACGGC,-0.0611
2,ATCAGAGG,0.0323
3,TCTGGACA,-0.0481
4,ATTATTGG,-0.0947
5,AAGACCTT,-0.178
6,ATCGTCGC,0.134
7,CTGGGATC,0.297
8,CACAGGTG,0.105
9,GCGCTTAA,-0.123
10,TAGAATCA,0.0486
11,CAAGACAA,-0.162
12,GTTCACCA,-0.158
13,TAGGCATA,0.117
14,GCAGGGGA,-0.0603
15,ACTCCAAG,-0.0501
16,TCACGCCA,0.0726
17,CCACTGGC,-0.12
18,GAGAGGGA,0.0291
19,GCTCCCAA,-0.272
20,AATGTTCA,-0.295
21,AGTTAAGG,-0.107
22,CAGTCTCC,-0.0628
23,AATGACTG,-0.2
24,AATATGAT,0.309
25,AAATGTCT,-0.278

row,Sequence,binding signal [E-score]
1,GATCTAGC,0.215
2,CCCAGAGA,0.0477
3,GCCCAAGA,-0.128
4,CGCTAACC,-0.143
5,AGACCATG,0.0671
6,CTGAATTC,-0.128
7,CATCATCG,0.149
8,ACTACTCC,0.0619
9,CAGTTCCC,-0.195
10,CAAGCCAA,-0.173
11,GATAACGA,0.029
12,GAGATGCC,0.0428
13,CAGAGGCA,-0.238
14,AATTCCCC,-0.144
15,AATGAAGA,0.0239
16,GGAAAAAC,-0.251
17,CTGCTTAA,-0.275
18,GTCAAGAC,-0.136
19,CAGCCTAA,-0.118
20,GTTTATTA,-0.00497
21,AAGATCTG,0.12
22,AGAGTAGC,-0.0558
23,ATGAGCTG,0.12
24,AGGAGACT,-0.157
25,CTGCCCTC,-0.112

row,Sequence,binding signal [E-score]
1,ATGTGTGG,-0.129
2,GTGATTGA,-0.0734
3,ACTTGACA,-0.000965
4,CGACGGCG,-0.115
5,CTGAATTA,-0.00562
6,ACGGACAT,-0.0887
7,AAGGAGCT,-0.164
8,CGCGTCAA,-0.108
9,AGGACAGG,-0.158
10,AGCTTTAA,-0.217
11,AGAGGCTA,-0.0599
12,AAGTCGCT,-0.254
13,CCGGAGGC,-0.00421
14,CGGATCAA,0.417
15,TAGATCAA,0.261
16,CTACCTAA,-0.0381
17,ACATATAG,0.162
18,CAAAGTGA,0.0928
19,CGCAATGA,0.0681
20,GTCACATA,0.0546
21,ACGTTCCG,-0.244
22,AAAGAATC,-0.0968
23,AGTCACGC,-0.104
24,TAGCTCGA,0.145
25,GCATGAGA,0.0735

row,Sequence,binding signal [E-score]
1,CAGAGGTC,-0.131
2,CGTGAGTA,0.0936
3,AGTTCTAC,-0.0789
4,TCGCGCGA,-0.0537
5,AATCTTGA,-0.0535
6,GTCCCTAA,-0.0718
7,GGGAGGCA,-0.17
8,ATATACCA,0.326
9,CGTTAACG,-0.0975
10,AGCGACTG,-0.123
11,CCCGAGAG,-0.0225
12,ATCTTGGA,0.151
13,GGGCGAGA,0.0683
14,GTTATGTA,-0.0766
15,ACATGATA,0.426
16,CCGTGCCC,-0.0658
17,CATCGCAG,0.0261
18,GCCCTTGA,0.0459
19,CACGACTG,-0.0846
20,AACCAGCA,-0.253
21,TACGGTAA,0.0132
22,TACGGGAA,0.0911
23,AGAGTGGA,0.0399
24,GGACTGAC,-0.258
25,CGGTATTC,0.319

row,Sequence,binding signal [E-score]
1,GTAAACTA,0.0311
2,ACTCGTCG,-0.357
3,CTTCATCC,0.0553
4,ATTCGTAC,0.0477
5,CGCCGGAA,-0.00658
6,CTGATAAA,0.0132
7,AATTTAGT,-0.017
8,CAGGCATA,0.136
9,CAACCTCA,-0.214
10,GATGGGGA,0.191
11,CGTACCCA,-0.0421
12,AATATACC,0.32
13,CGCTGTCA,-0.144
14,CTTTTACA,-0.328
15,TCAACTCA,-0.136
16,AAGTAGCC,-0.12
17,CAGTCACG,-0.154
18,GTTAAAAA,-0.292
19,CAATGCGC,-0.0377
20,CTGCTGCA,-0.199
21,AGCCAAAA,-0.0893
22,AGTTGTGC,-0.141
23,GGCGCTTA,-0.0815
24,GGCATCTA,0.132
25,TACGCACA,-0.224

row,Sequence,binding signal [E-score]
1,AGTAACAC,-0.0453
2,TATACCGA,0.339
3,ATCAGAAA,0.112
4,CATGGCAA,-0.309
5,ACGAGTCC,-0.17
6,AGGGCGGC,-0.172
7,CCACCCTC,0.0427
8,AATACTAG,0.0971
9,AGCCGATC,0.329
10,AGAAAGGC,-0.131
11,GCTGCCCA,-0.161
12,ATTAGGTC,0.0171
13,AATGAAAC,0.134
14,GAGGACAC,0.222
15,ACTTTTTC,-0.261
16,AAAGGTGG,-0.148
17,AAACCTCG,-0.0945
18,GCGCGGTA,0.0565
19,CATTAACC,-0.0556
20,AACCAAGC,-0.252
21,ACCGAAGT,-0.157
22,GTCTAGCA,-0.072
23,ATGACGCG,-0.00942
24,AAAACTTC,-0.176
25,AAGCGCAG,-0.0929

row,Sequence,binding signal [E-score]
1,GGATGCCC,0.0996
2,CCGAACGG,-0.065
3,GTGCTGAA,-0.0775
4,TGATTCCA,0.106
5,GGGAGAGA,-0.0255
6,CTGATTAA,0.149
7,CGGTACCC,0.122
8,TCGAAGCA,-0.298
9,CACGAGGC,-0.185
10,GCGATCCC,0.395
11,AACTGTGG,0.149
12,TGCGGGAA,-0.111
13,AGTCAGCC,-0.153
14,ATTCCTAC,-0.0757
15,CGTATATA,0.253
16,AACGGTAG,-0.0597
17,AGGAATCC,0.197
18,AGGTTGGC,-0.0254
19,AGCACTAG,-0.0281
20,GGATCCTA,0.377
21,AGACCCCG,0.23
22,TTGGCAAA,-0.202
23,AATCTGCG,0.0465
24,AAGTACTA,-0.134
25,ATTTAGGA,0.00797

row,Sequence,binding signal [E-score]
1,AAGCTGTG,-0.106
2,ATAGTAGA,0.193
3,AAGCCGCA,-0.105
4,GACGGCCC,-0.175
5,GTATCAAA,0.452
6,AGCGAAAT,-0.113
7,CCCGGTGC,-0.0819
8,GCAACCAC,-0.282
9,AAAGGCGC,-0.125
10,CCGGTTAC,0.136
11,TATGGTGA,0.122
12,ACGTTAGA,-0.145
13,ATATGTGA,0.259
14,ATCTAATA,0.237
15,AACGTAGT,-0.183
16,ACGCTCTG,-0.179
17,ATATAACG,0.233
18,GGCGGTAA,0.0689
19,ATAGCGGG,0.144
20,ATAGGGTG,0.161
21,AGAAGGTG,0.174
22,GAGGAATA,0.21
23,ATGAAACG,0.0421
24,GCTGAGAC,0.214
25,GGTTGTAC,0.0201

row,Sequence,binding signal [E-score]
1,AACGCAGC,-0.0572
2,AATAAGAA,-0.18
3,AAGTGCAT,-0.14
4,CACAGCGG,-0.0489
5,CATCCTAC,0.157
6,GGATCCGA,0.376
7,AGCGAACG,-0.244
8,ACGTCAAC,-0.218
9,GCGACCAA,-0.177
10,AGGGGGAA,-0.0477
11,ACGCGAAA,-0.333
12,CCCCAGAC,-0.107
13,CCGAACAC,-0.0332
14,ATGACGAA,-0.0278
15,CCCTGCAG,0.135
16,CGAGCCCG,0.0269
17,AGAGGAGC,-0.087
18,CAATACGC,0.198
19,AATCAACG,-0.0564
